Results on two compounds are retold here after publication PMC7284133, “Identification and analysis of novel small molecule inhibitors of RNase E: Implications for antibacterial targeting and regulation of RNase E” (Biochemistry and Biophysics Reports, 2020).

For the assay, the target named is T1, RNase E (Acinetobacter baumannii, UniProt A0ABX6CBI2).
T1 construct: gene rne; N-terminal domain (aa 1–544), N-terminally His10-tagged
Format: biochemical.

In the case of `CC(C)c1c(O)nc(SCCC(=O)O)[nH]c1=O` [AS2], the “FRET-based real-time RNA cleavage assay, single concentration (2 mM)” value is on record as “All three small molecules inhibited all three RNase E NTDs”.

`N[C@@H]1[C@@H](O)[C@H](O)[C@@H](COP(=O)(O)O)O[C@@H]1O` [AS4, glucosamine-6-phosphate]: the “FRET-based real-time RNA cleavage assay, single concentration (2 mM)” value was “All three small molecules inhibited all three RNase E NTDs”.
